The supplement of paper PMC3334620
The full ranking holds about 33,000 sequences; the median of “E-score (-0.5 to 0.5)” is about -0.016, and the highest 2% start at about 0.32. The list shows a part of the results.

The sequences below were run against T1, Stp1 (UniProt B3LFK1) (assay: PBM E-score (8-mer binding enrichment) (E-score (-0.5 to 0.5)); higher = stronger / more preferred TF binding; most listed sequences are background and not binding sites). Conditions: protein concentration: 200 nM; construct: GST-full length.
T1 sequence: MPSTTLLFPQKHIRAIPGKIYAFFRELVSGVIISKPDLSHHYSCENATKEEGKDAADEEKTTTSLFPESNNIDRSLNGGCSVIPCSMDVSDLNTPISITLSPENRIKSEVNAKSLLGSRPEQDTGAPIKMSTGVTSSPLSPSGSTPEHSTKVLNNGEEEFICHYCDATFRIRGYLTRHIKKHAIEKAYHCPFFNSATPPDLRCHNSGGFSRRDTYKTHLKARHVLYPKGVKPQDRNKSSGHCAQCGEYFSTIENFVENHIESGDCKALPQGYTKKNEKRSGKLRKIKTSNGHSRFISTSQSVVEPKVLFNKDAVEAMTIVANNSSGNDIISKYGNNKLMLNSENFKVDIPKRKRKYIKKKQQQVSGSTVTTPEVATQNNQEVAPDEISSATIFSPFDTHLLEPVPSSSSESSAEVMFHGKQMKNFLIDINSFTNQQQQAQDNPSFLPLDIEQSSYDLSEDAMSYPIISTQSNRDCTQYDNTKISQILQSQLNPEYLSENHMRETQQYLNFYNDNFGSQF
Protocol: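 Universal 'all 10-mer' protein binding microarrays (Agilent AMADID 015681) probed with GST-tagged S. cerevisiae TFs (full-length or DBD) made by in vitro transcription/translation (PURExpress), about 100-200 nM. Bound TF was detected with fluorescent anti-GST. Each ungapped 8-mer (which stands for itself and its reverse complement) is scored by the PBM enrichment score (E-score), a modified Wilcoxon-Mann-Whitney statistic from -0.5 to +0.5, computed with the Universal PBM Analysis Suite. Scale: above 0.35 generally sequence-specific binding.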

Row | Sequence | PBM E-score
1 | ACCAAATC | 0.047
2 | CTTATGCA | 0.0959
3 | GTAAGTAC | 0.0755
4 | AAGCGTAA | 0.014
5 | CTCCATGA | 0.0364
6 | GAGACTTA | -0.276
7 | AGCCATAA | -0.101
8 | AGACATCC | -0.27
9 | CATTTTAC | 0.271
10 | ATTCATTC | 0.0613
11 | AGGCCCCT | -0.211
12 | CACGGACA | 0.177
13 | TACTGCGA | -0.159
14 | GACATATA | 0.0496
15 | TCAAACGA | 0.228
16 | ATTCCTAC | 0.0636
17 | AAGTCAAT | 0.13
18 | ATTATCCG | 0.171
19 | GTGTGCCA | 0.113
20 | AAGCGCTC | -0.0213
21 | CTGTGAGA | -0.0467
22 | CGTTACTA | 0.0784
23 | CTCTCACA | 0.1
24 | CCGGAGGC | -0.176
25 | AGTCACGA | -0.104

Row | Sequence | PBM E-score
26 | CAGGTTTC | -0.0256
27 | AGAACTCG | 0.0724
28 | CCGGGTTA | -0.185
29 | CGTTCTGA | -0.0956
30 | GCAGTTCA | 0.0378
31 | AGCGCTAT | 0.0464
32 | AAGACCGA | -0.107
33 | AACGTTAT | -0.04
34 | ATTGCGGG | -0.011
35 | ACGTAACT | -0.261
36 | CCGGATCG | -0.23
37 | GGTCGGGA | -0.152
38 | ACATACCA | -0.116
39 | CTCATTCC | -0.0804
40 | CGGCAATC | 0.332
41 | CGCATGGC | 0.298
42 | GAAAGACA | 0.209
43 | AGAGCAAC | -0.121
44 | GATGACGC | -0.00207
45 | AGTATTTG | -0.0109
46 | AACCGCCT | 0.0265
47 | AGCAGGTG | 0.139
48 | ACGATTAT | -0.0115
49 | AGGAAATG | 0.108
50 | TAAGTAAA | 0.16

Row | Sequence | PBM E-score
51 | AACAGCTC | 0.00991
52 | GCGCCCCA | 0.353
53 | ATGTCGCC | 0.266
54 | AAAGTTAG | 0.0741
55 | CATACCAG | -0.177
56 | GCTGGTTA | -0.0873
57 | ATATGAAG | 0.0152
58 | CACTAGCC | 0.156
59 | ATGTGCAA | 0.0181
60 | CACAAAAA | 0.166
61 | CGAGCCAG | -0.0845
62 | CCGTACAA | 0.35
63 | ATAACGTG | 0.00931
64 | ACACTGGT | -0.0774
65 | AATCCACC | -0.2
66 | ACTGTACG | 0.0416
67 | CAAGCCAG | -0.161
68 | AGCCTATC | -0.126
69 | CAAATGGA | 0.0629
70 | AGCGGGCA | -0.0624
71 | ATTTTGAG | 0.111
72 | CGGTCACC | -0.0662
73 | ACAGTTTG | -0.0108
74 | CAGTTGCG | -0.0257
75 | AAGCTAAA | -0.116

Row | Sequence | PBM E-score
76 | ATAACCAT | -0.0986
77 | CTGCAAGA | -0.119
78 | ACCCCATG | -0.104
79 | GACAGAAC | 0.0155
80 | GGGAGTCA | -0.324
81 | ATTATCGG | 0.0172
82 | ACCCCGGG | -0.171
83 | CGTGCTCC | 0.0298
84 | GCTCCATA | 0.00126
85 | CTACCGGC | -0.112
86 | ACCTTGCG | 0.13
87 | AAGCTACT | -0.0664
88 | AGAGTCCA | -0.134
89 | ATTCGGTG | -0.0133
90 | GACTGACA | -0.113
91 | GACTCTCC | -0.149
92 | AAATCCGT | 0.229
93 | CAAAGAAA | 0.048
94 | TTCCGGAA | 0.0276
95 | CTGGATGC | -0.161
96 | AACTCCTT | -0.0422
97 | GAGTCATC | -0.206
98 | ACCTACCG | -0.239
99 | CGCTGAAG | -0.108
100 | CCGTTGCA | 0.19

Row | Sequence | PBM E-score
101 | GTTATGAA | 0.152
102 | CAATTGAA | -0.0308
103 | ACGTGCAG | 0.105
104 | ATGAAGGA | 0.145
105 | CTCTTTGA | -0.116
106 | ACCTCGCG | 0.00655
107 | ATCAATTG | 0.217
108 | GCCACCCA | -0.0763
109 | ACTTACCC | -0.132
110 | ACTTCGTA | -0.161
111 | AGCGTCAG | -0.101
112 | AAGAATCG | 0.136
113 | GACAACGC | 0.08
114 | CCTGATGA | 0.0673
115 | ACTACCTC | -0.21
116 | CAAACAAC | 0.137
117 | ATAAACCC | 0.0437
118 | ACTTCTGA | 0.0118
119 | GTAAGCTA | 0.0598
120 | GGGGATGA | -0.308
121 | ACGACCTG | -0.222
122 | CCCACACA | -0.0354
123 | TAAGCCGA | 0.0486
124 | AAGTGAGC | -0.2
125 | TGTGTCAA | 0.00654

Row | Sequence | PBM E-score
126 | CAGGACGC | -0.118
127 | CAAATATA | 0.0205
128 | CTTCTCCA | -0.3
129 | AGTTCCCA | 0.0319
130 | AGGGTCCG | -0.212
131 | ACAGGTGA | -0.0536
132 | CATATCGG | -0.136
133 | CGCGATGC | 0.012
134 | GACGATGA | 0.129
135 | CCGCGTTC | 0.303
136 | GTCCTGGA | -0.399
137 | ACCTGTAT | -0.0106
138 | AAAATCGG | 0.00058
139 | GCCCGCGA | -0.125
140 | AGCGGTAG | -0.193
141 | CAGGGGGC | -0.0376
142 | AACTCACC | -0.19
143 | ACAATCTC | -0.0714
144 | ATAGAAGC | 0.196
145 | CGTAGAAC | -0.0229
146 | ACTGGCCG | -0.0611
147 | AGGATGTA | -0.0745
148 | GAAAAATC | 0.0179
149 | CTGTCTAC | -0.0878
150 | GACGTTTA | -0.116

Row | Sequence | PBM E-score
151 | GCAACGGA | 0.228
152 | GTTTGAGA | -0.0325
153 | CAGTACCG | 0.101
154 | TAAGCAAA | 0.105
155 | AATACCCA | -0.123
156 | AAACAAGG | 0.0129
157 | GGGACCGA | -0.273
158 | GGTATTAC | -0.0377
159 | CGTACTGC | -0.0413
160 | AATTGCAC | 0.0342
161 | AGTTCCAA | -0.0924
162 | TATTTAAA | 0.234
163 | GTAAGACA | 0.0113
164 | AGTGTTGA | 0.16
165 | AAGTGATG | -0.0746
166 | AGGGGCAA | -0.0456
167 | AGTCTAGG | -0.261
168 | CAGGGTTC | -0.226
169 | CATTGGGG | -0.274
170 | AAAGCGAA | 0.128
171 | ATCCATTC | 0.0802
172 | CACTCAGC | -0.212
